Experimental findings from publication PMC4336329 (PLoS ONE, 2015) are described below.

Screen size: about 310,000 compounds; about 14,000 (4.5%) showed an effect of 50% or more. Effects have a minus sign here. The list shows a part of the results.
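Further: peak tail current of the secondary pulse compared with the same well before compound.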

Chain of human ether-à-go-go-related gene (hERG) potassium channel (Q12809 whole entry, looked up): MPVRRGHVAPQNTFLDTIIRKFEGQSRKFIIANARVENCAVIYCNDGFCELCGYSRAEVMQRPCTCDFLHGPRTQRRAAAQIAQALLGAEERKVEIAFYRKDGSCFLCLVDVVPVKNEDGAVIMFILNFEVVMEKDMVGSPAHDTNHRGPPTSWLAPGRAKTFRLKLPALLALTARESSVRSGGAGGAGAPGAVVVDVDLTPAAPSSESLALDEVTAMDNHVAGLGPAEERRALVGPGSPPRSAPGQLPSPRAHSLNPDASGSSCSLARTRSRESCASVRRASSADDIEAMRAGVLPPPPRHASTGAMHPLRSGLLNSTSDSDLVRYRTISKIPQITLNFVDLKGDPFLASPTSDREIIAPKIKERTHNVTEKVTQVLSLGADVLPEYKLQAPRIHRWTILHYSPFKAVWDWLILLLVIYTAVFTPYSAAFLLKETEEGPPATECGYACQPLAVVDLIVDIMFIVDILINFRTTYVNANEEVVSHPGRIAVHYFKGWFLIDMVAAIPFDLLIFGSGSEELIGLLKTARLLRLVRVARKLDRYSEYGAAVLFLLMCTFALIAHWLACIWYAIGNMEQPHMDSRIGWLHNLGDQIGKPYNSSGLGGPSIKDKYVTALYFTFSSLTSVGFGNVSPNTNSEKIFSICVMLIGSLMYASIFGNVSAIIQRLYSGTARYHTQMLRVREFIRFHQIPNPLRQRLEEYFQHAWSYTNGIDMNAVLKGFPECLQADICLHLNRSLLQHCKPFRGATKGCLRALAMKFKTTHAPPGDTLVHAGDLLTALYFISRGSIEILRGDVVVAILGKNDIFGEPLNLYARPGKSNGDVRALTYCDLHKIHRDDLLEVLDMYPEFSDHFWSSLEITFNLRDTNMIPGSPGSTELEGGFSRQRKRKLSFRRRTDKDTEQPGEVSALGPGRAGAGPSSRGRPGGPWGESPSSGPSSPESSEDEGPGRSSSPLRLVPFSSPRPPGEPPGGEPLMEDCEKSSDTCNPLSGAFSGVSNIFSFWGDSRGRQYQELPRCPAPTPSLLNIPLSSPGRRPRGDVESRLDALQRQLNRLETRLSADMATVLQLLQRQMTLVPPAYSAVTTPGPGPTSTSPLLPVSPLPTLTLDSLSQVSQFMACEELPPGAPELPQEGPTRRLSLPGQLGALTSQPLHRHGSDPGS

This experiment addresses human ether-à-go-go-related gene (hERG) potassium channel (human, UniProt Q12809). In words: primary screen, population patch clamp on CHO cells stably expressing hERG.
`CCCn1c(=O)c(C(=O)NNC(=O)Cc2ccccc2)c(O)c2ccccc21`: the “hERG current change (%, negative = inhibition) at 10uM” value is reported as -9.14%.
Next, `CSCCC(NC(=O)c1ccccc1Br)C(=O)NCc1ccc(F)cc1` (stereo not drawn): -9.59%.
With `CC(O)CN(CCC(N)=O)CCC(N)=O.O=C(O)C(=O)O` (stereo not drawn) the figure was 21.4%.
With `Cc1cc(C)cc(NC(=O)CSc2nnc(CN3CCOCC3)n2C)c1` the figure was -13%; with `COc1ccc(C(=O)NCCc2nnc3ccc(SCC(=O)NCc4ccccc4)nn23)cc1`, 9.91%.
Regarding `CCN(CC)C(=O)CSc1nnc(-c2ccco2)n1N`, the “hERG current change (%, negative = inhibition) at 10uM” value is reported as -0.873%.
Turning to `Cc1cc(S(=O)(=O)Nc2c(C)nc3nc[nH]n3c2=O)ccc1F`, the “hERG current change (%, negative = inhibition) at 10uM” value is 12%.
Take `O=C(CNC(=O)c1ccccc1)N/N=C/c1ccc([N+](=O)[O-])o1`: the “hERG current change (%, negative = inhibition) at 10uM” value is -17.3%.
Consider `COc1ccccc1N1CCN(Cc2ccc(Br)s2)CC1`, for which the “hERG current change (%, negative = inhibition) at 10uM” value is reported as -35.9%.
In the case of `Cc1ccc(OC(=O)c2ccccc2P(=O)(O)O)cc1`, the “hERG current change (%, negative = inhibition) at 10uM” value turned out to be 3.41%.
For `COc1ccc2o/c(=N/NC(=O)c3cccs3)c(C(N)=O)cc2c1`, the “hERG current change (%, negative = inhibition) at 10uM” value stood at 2.16%.
With `CCOc1ccc(N2C(=O)NC(=O)/C(=C\c3ccccc3[N+](=O)[O-])C2=O)cc1` the figure was 5.02%; with `Cc1ccc2[nH]c(CN3CCC(CO)(CC4CCCCO4)CC3)c(C)c2c1` (stereo not drawn), -43.7%; with `Cc1ccn2c(CNCCn3nc(C)cc3C)c(C(=O)N3CCCCCC3)nc2c1`, -1.24%.
Turning to `Cc1ccc(NC(=O)CSCC(=O)NNC(=O)c2nn(C)c(=O)c3ccccc23)cc1`, the “hERG current change (%, negative = inhibition) at 10uM” value was -41.6%.
For `Cc1cc2cc(CNC(=O)c3ccc(S(=O)(=O)N4CCCCC4)cc3)ccc2[nH]1`, the “hERG current change (%, negative = inhibition) at 10uM” value is listed as -5.25%.
Consider `Cc1cccc(CCNS(=O)(=O)c2ccc3c(c2)oc(=O)n3C)c1`, for which the “hERG current change (%, negative = inhibition) at 10uM” value is reported as -18.9%.
For the molecule `COc1ccc(C(C)(C)C)cc1NC(=O)CCc1c(C)noc1C`, the “hERG current change (%, negative = inhibition) at 10uM” value is on record as -9.96%.
Consider `COc1ccc(NC(=S)Nc2ccccc2OC)c(OC)c1`, for which the “hERG current change (%, negative = inhibition) at 10uM” value is on record as 15.6%.
`CC1(C)CC(=O)C2=C(C1)N(c1ccccc1)C(=O)CC2c1ccsc1` (stereo not drawn): the “hERG current change (%, negative = inhibition) at 10uM” value is given as -14.4%.
With `CCn1cc(SCC(=O)NCC2CCCO2)c2ccccc21` (stereo not drawn), the “hERG current change (%, negative = inhibition) at 10uM” value is 15.7%.
Next, `CNC(=S)N1N=C(c2ccccc2)CC1c1ccc(OC)c(OC)c1` (stereo not drawn): -15.7%.
With `COC(=O)c1ccc(S(=O)(=O)N2C3CCC2CC(NC(=O)NC2CCCCC2)C3)cc1` (stereo not drawn) the figure was -3.58%.
Next, `Cn1c2c(c(=O)n(C)c1=O)C(C(F)(F)F)(C(F)(F)F)N=C(CCC1CCCCC1)N2`: -0.915%; `CCCNS(=O)(=O)c1ccc(OCC(=O)N2CCN(c3ccccc3)CC2)cc1`: -42.8%.
With `C/C(=N\NC(=O)c1cccnc1)c1ccccc1`, the “hERG current change (%, negative = inhibition) at 10uM” value is listed as 10.9%.
Take `O=C(CCCN1C(=O)c2ccccc2C1=O)Nc1cccc(S(=O)(=O)NC2=NCCC2)c1`: the “hERG current change (%, negative = inhibition) at 10uM” value was 13.5%.
`Fc1ccc(SCCc2ccccn2)cc1`: the “hERG current change (%, negative = inhibition) at 10uM” value is 8.06%.
As to `NS(=O)(=O)c1cc(C2(O)NC(=O)c3ccccc32)ccc1Cl` (stereo not drawn), the “hERG current change (%, negative = inhibition) at 10uM” value is reported as 2.05%.
With `O=C(CN1CCC(NC(=O)C2CC2)CC1)Nc1cccc(F)c1` the figure was -18.9%; with `Cn1c(=O)c(C(=O)NNC(=O)c2ccccc2F)c(O)c2ccccc21`, 20.9%.
For `CC(C)(C)c1cc(CN2CCCCC2)cc(C(C)(C)C)c1O`, the “hERG current change (%, negative = inhibition) at 10uM” value is recorded as -50.7%.
With `Cc1ccnc(NC(=O)c2ccc(NC(=O)c3ccco3)cc2)c1` the figure was 0.683%; with `O=C1CC(SCCO)C(=O)N1c1ccc(Oc2ccccc2)cc1` (stereo not drawn), -14.8%; with `COc1cccc(/C=N/NC(=O)CN(CCc2ccccc2)S(=O)(=O)c2ccc(NC(C)=O)cc2)c1`, 0.26%.
Consider `CC(=O)Nc1ccc(Nc2nc(C)nc3c2nnn3Cc2ccccc2Cl)cc1`, for which the “hERG current change (%, negative = inhibition) at 10uM” value is -16.8%.
With `CCOC(=O)C#CC(CCc1ccccc1)OS(N)(=O)=O` (stereo not drawn), the “hERG current change (%, negative = inhibition) at 10uM” value was 11.8%.
In the case of `CN(c1cccc(NC(=O)CN(c2cccc(Cl)c2)S(=O)(=O)c2ccc(Cl)cc2)c1)S(C)(=O)=O`, the “hERG current change (%, negative = inhibition) at 10uM” value came to 14.8%.
Take `CCOC(=O)CN1C(=O)S/C(=C/c2ccc(O)c([N+](=O)[O-])c2)C1=O`: the “hERG current change (%, negative = inhibition) at 10uM” value is given as 0.587%.
Take `COc1ccc(C(=O)N/C(=C\c2cn(C)c3ccccc23)C(=O)NCCCN2CCOCC2)cc1OC`: the “hERG current change (%, negative = inhibition) at 10uM” value is on record as 5.38%.
Turning to `COc1ccc(C(C(=O)NC2CCCC2)N(C(=O)c2snc(C(N)=O)c2N)c2cccc(O)c2)cc1` (stereo not drawn), the “hERG current change (%, negative = inhibition) at 10uM” value was 14.5%.
`CCn1nc(CC(C)C)cc1C(=O)N1CCCC(Nc2ccc(OC)cc2)C1` (stereo not drawn): the “hERG current change (%, negative = inhibition) at 10uM” value is reported as 9.27%.
Turning to `COc1ccc(-c2cc(C(=O)Nc3c(C)n(C)n(-c4ccccc4)c3=O)c3ccccc3n2)c(OC)c1`, the “hERG current change (%, negative = inhibition) at 10uM” value is reported as 6.95%.
As for `Cc1c2c(c(C)n1C)C(C(=O)NC1CCCCC1)N(Cc1ccccc1)C2=O` (stereo not drawn), the “hERG current change (%, negative = inhibition) at 10uM” value is -6.12%.
With `Cc1ccc(CNC(=O)C2CC(=O)N(C3CCCCCCC3)C2)cc1` (stereo not drawn) the figure was 6.14%; with `O=C(NCC1CCCCC1)c1cccc(S(=O)(=O)N2CCCC2)c1`, 5.68%; with `CC(C)n1cnnc1SCC(=O)NCC(=O)Nc1ccc(F)cc1`, 11.2%.
On to `CCc1ccc(NC(=O)c2cccnc2)cc1`, for which the “hERG current change (%, negative = inhibition) at 10uM” value is recorded as 13.6%.
Take `CC(=O)NC(Nc1nc2c(s1)CCCC2)(C(F)(F)F)C(F)(F)F`: the “hERG current change (%, negative = inhibition) at 10uM” value is 23.8%.
For the molecule `O=C(NCCCNC(=O)c1ccccc1)c1ccccc1`, the “hERG current change (%, negative = inhibition) at 10uM” value amounted to 0.548%.
Next, `CC1(OC(=O)C2CCCC2)C(=O)C=C2C=C(c3ccsc3)N(Cc3ccco3)C=C2C1=O` (stereo not drawn): -23.2%; `Cc1ccccc1C(=O)NC1CCN(CC(=O)Nc2ccccc2Cl)CC1`: -14.4%; `CC(C)(C)c1ccc(C(=O)Nc2ccc(N3CCOCC3)cc2)cc1`: -4.74%.
Next, `CC(C)[C@H](NC(=O)C1CCN(S(=O)(=O)c2ccccc2)CC1)C(=O)NCc1ccc(F)cc1`: -8.26%; `Cc1cc2cc(CNC(=O)c3cc4ccccc4o3)ccc2n1C`: 7.58%.
For the molecule `COc1ccc(C(CC(=O)Nc2ncccc2C)N2Cc3ccccc3C2=O)cc1OC` (stereo not drawn), the “hERG current change (%, negative = inhibition) at 10uM” value is 24.1%.
In the case of `Cc1cc(SCCOc2ccc(Br)cc2)nc(N)n1`, the “hERG current change (%, negative = inhibition) at 10uM” value is on record as -3.59%.
With `C/C(=N/NC(=O)CNC(=O)COc1ccccc1)c1ccco1` the figure was -3.93%; with `COc1ccc2cc(C(c3nnnn3CCc3ccccc3)N3CCCC(C)C3)c(=O)[nH]c2c1` (stereo not drawn), -33.1%.
Turning to `O=C(Nc1ccccc1)/C(=C1\CCCN1)[N+](=O)[O-]`, the “hERG current change (%, negative = inhibition) at 10uM” value is listed as -0.153%.
With `CCCC(=O)C1=C(O)C(C(=O)OC)C(C)(C)CC1=NC(C)C` (stereo not drawn), the “hERG current change (%, negative = inhibition) at 10uM” value turned out to be 15.1%.
With `CCOC(=O)c1ccc(NC(=O)c2cn(-c3ccccc3)nc2-c2ccncc2)cc1`, the “hERG current change (%, negative = inhibition) at 10uM” value is reported as -48%.
With `O=C(Nc1ccccc1C(=O)NCCc1ccccc1)c1ccco1`, the “hERG current change (%, negative = inhibition) at 10uM” value is given as -15.5%.
With `Cc1cccc(NC(=O)CSc2ccc(C(N)=O)cc2[N+](=O)[O-])c1C` the figure was 2.09%.
With `O=C(Nc1ccc2c(c1)C(=O)N(CC1CCCO1)C2=O)c1ccccc1Br` (stereo not drawn) the figure was 2.03%.
Take `Cc1cc(N2CCOCC2)n2nc(C(F)(F)F)c(-c3ccccc3)c2n1`: the “hERG current change (%, negative = inhibition) at 10uM” value is on record as 12.7%.
In the case of `COc1ccc(C(C)=O)cc1CSc1ccc2c(c1)OCCO2`, the “hERG current change (%, negative = inhibition) at 10uM” value is listed as -2.43%.
With `COCCSc1nc(N)c2c3c(sc2n1)CN(C)CC3` the figure was -9.41%; with `O=C(CSc1nnc(-c2cccnc2)s1)Nc1ccnc2ccccc12`, -4.36%; with `CCOC(=O)c1nn(-c2ccccc2)c(=O)c2c(N)scc12`, 1.16%.
With `O=C(c1cc(=O)[nH]c2ccc(Br)cc12)N1CCC2(CC1)OCCO2` the figure was 12.6%; with `COc1ccc(S(=O)(=O)N2CCOC2CNC(=O)C(=O)NCCCN2CCOCC2)cc1` (stereo not drawn), 13.5%.
In the case of `Cc1ccccc1NC(=O)c1nc(S(C)(=O)=O)ncc1Cl`, the “hERG current change (%, negative = inhibition) at 10uM” value was determined as 13.8%.
In the case of `Cc1cc(C)n2ncc(C(=O)NC3CCCCC3)c2n1`, the “hERG current change (%, negative = inhibition) at 10uM” value is listed as -0.842%.
With `CCN(C(=O)Nc1ccccc1OC)c1c(N)n(Cc2ccccc2)c(=O)[nH]c1=O` the figure was 14%; with `COCC(C)NC(=O)/C=C/c1ccc(OC)cc1` (stereo not drawn), 9.71%; with `CN(C)CCCN(C(=O)CCSc1ccccc1)c1nc2cc3c(cc2s1)OCO3.Cl`, -48.2%.
With `CN(C)/C=C/C(=O)c1cnc(-c2ccccc2)s1` the figure was 0.319%; with `Nn1c(SCc2ccc(Br)cc2)nnc1-c1ccncc1`, -38.5%.
With `CC1CCCCC1NC(=O)c1ccc(S(=O)(=O)NNC(=O)c2ccncc2)cc1` (stereo not drawn) the figure was 14.1%; with `COc1ccccc1N(C(=O)c1snc(C(N)=O)c1N)C(C(=O)NCCC(C)C)c1ccco1` (stereo not drawn), -20.5%.
In the case of `CC1(C)C2CCC1(CS(=O)(=O)Nc1ccc(S(=O)(=O)NC3CCCCC3)cc1)C(=O)C2` (stereo not drawn), the “hERG current change (%, negative = inhibition) at 10uM” value is on record as -30.9%.
Next, `CC1CCC(NC(=O)CC2Oc3ccccc3NC2=O)CC1` (stereo not drawn): 3.8%.
On to `CCCN1C2CCCC1CC(NC(=O)c1ccccc1F)C2` (stereo not drawn), for which the “hERG current change (%, negative = inhibition) at 10uM” value was -21.7%.
On to `O=[N+]([O-])c1ccccc1O[C@@H]1O[C@H](CO)[C@H](O)[C@H](O)[C@H]1O`, for which the “hERG current change (%, negative = inhibition) at 10uM” value stood at 11%.
Regarding `CCOC(=O)Cn1c(SC)nc2sc3c(c2c1=O)CC(C)(C)OC3`, the “hERG current change (%, negative = inhibition) at 10uM” value stood at 2.04%.
As for `COc1ccc(N(CC(=O)NCCC2=CCCCC2)S(=O)(=O)c2ccccc2)c(OC)c1`, the “hERG current change (%, negative = inhibition) at 10uM” value is -8.73%.
